SMILES strings stand for the structures. The list shows a part of the results.

Data on 27 compounds can be found in the antibiotic and cytotoxicity screens of Wong et al. (2023).

The subject of test [1] is HSkMC (human skeletal muscle cells). Put plainly: cytotoxicity call (relative viability < 0.9). Particulars: 10 µM.
Test [2] relates to HepG2. Put plainly: cytotoxicity call (relative viability < 0.9). The conditions noted are these: 10 µM.
The subject of test [3] is S. aureus RN4220. The test is described as follows: growth inhibition call (relative growth <= 0.2). The conditions noted are these: 50 µM.

With `C[C@@H]1CN([C@H](C)CO)C(=O)c2cc(NC(=O)Cc3ccccc3)ccc2O[C@@H](C)CCCCO[C@@H]1CN(C)C(=O)NC1CCCCC1`, the cytotoxicity call in test [1] and in test [2] was “inactive” in each case. Moreover, the growth inhibition call in test [3] was “inactive”.

On to `C[C@H](CO)N1C[C@H](C)[C@H](CN(C)C)Oc2ccc(NS(=O)(=O)c3cn(C)cn3)cc2CC1=O`, for which the cytotoxicity call in test [1] and in test [2] was “inactive” throughout. Besides, the growth inhibition call in test [3] was “inactive”.

On to `Cc1cc(C(=O)Nc2cccc3c2O[C@H](CN(C)S(=O)(=O)c2cccs2)[C@@H](C)CN([C@@H](C)CO)C3=O)n(C)n1`, for which the cytotoxicity call in test [1] and in test [2] was “inactive” each time. Besides, the growth inhibition call in test [3] is “inactive”.

For `O=C1N[C@H](Cc2c[nH]c3ccccc23)COC(=O)[C@@H](Cc2ccc(F)cc2)CCC=CC[C@H]1CC(=O)N(CCO)Cc1ccccc1`, the cytotoxicity call in test [1] was “inactive”. Besides, the cytotoxicity call in test [2] is “active”. For the same compound, the growth inhibition call in test [3] was “inactive”.

`COCC(=O)N1C[C@@H](C)[C@@H](OC)CN(C)C(=O)c2ccc(NC(=O)Nc3cccc(F)c3)cc2OC[C@H]1C`: the cytotoxicity call in test [1] and in test [2] was “inactive” throughout. Besides, in test [3], the growth inhibition call is “inactive”.

For the compound `CCN1CCN(CC(=O)Nc2ccc(-c3cccc4c(=O)cc(N5CCOCC5)oc34)c3sc4ccccc4c23)CC1`, in test [1], the cytotoxicity call is “inactive”. The cytotoxicity call in test [2] is “active”. Besides, the growth inhibition call in test [3] is “inactive”.

As to `CCS(=O)(=O)N(C)C[C@H]1OCc2ccccc2-c2c(n(C)c3ccccc23)C(=O)N([C@H](C)CO)C[C@H]1C`, the cytotoxicity call in test [1] and in test [2] was “inactive” each time. Also, the growth inhibition call in test [3] was “inactive”.

Consider `CCCN(C)C[C@@H]1OCCCC[C@H](C)Oc2ccc(NC(=O)C3CCCCC3)cc2C(=O)N([C@@H](C)CO)C[C@@H]1C`, for which the cytotoxicity call in test [1] and in test [2] was “inactive” throughout. Moreover, the growth inhibition call in test [3] was “inactive”.

Take `O=C(CCCl)NCc1ccccc1`: the cytotoxicity call in test [1] and in test [2] was “inactive” throughout. For the same compound, the growth inhibition call in test [3] was “inactive”.

`CCN1[C@@H]2c3ccc(-c4ccncc4)c(=O)n3C[C@@H]2[C@@H](CO)[C@@H]1C(=O)NCCc1cn(C)cn1`: the cytotoxicity call in test [1] and in test [2] was “inactive” throughout. Besides, in test [3], the growth inhibition call is “inactive”.

In the case of `N#C/C(=C\c1cccs1)c1csc2ccc(Cl)cc12`, the cytotoxicity call in test [1] and in test [2] was “inactive” in each case. In addition, the growth inhibition call in test [3] was “inactive”.

In the case of `CCCC#Cc1cnc2c(c1)C(=O)N([C@H](C)CO)C[C@H](C)[C@@H](CN(C)S(=O)(=O)c1cn(C)cn1)O2`, the cytotoxicity call in test [1] and in test [2] was “inactive” throughout. Further, in test [3], the growth inhibition call was “inactive”.

In the case of `C[C@@H]1CN([C@@H](C)CO)S(=O)(=O)c2ccc(C#CC3CC3)cc2O[C@@H]1CN(C)Cc1ccccc1F`, the cytotoxicity call in test [1] and in test [2] was “inactive” each time. Further, the growth inhibition call in test [3] was “inactive”.

As to `CCS(=O)(=O)CCn1c([N+](=O)[O-])cnc1C`, the cytotoxicity call in test [1] and in test [2] was “inactive” throughout. Besides, the growth inhibition call in test [3] is “inactive”.

`C[C@@H]1CCCCO[C@H](CN(C)S(=O)(=O)c2ccc(Cl)cc2)[C@@H](C)CN([C@H](C)CO)C(=O)c2cc(NC(=O)NC3CCCCC3)ccc2O1`: the cytotoxicity call in test [1] and in test [2] was “inactive” throughout. Further, in test [3], the growth inhibition call is “inactive”.

`COc1ccc(cc1)S(=O)(=O)N1C[C@]2(C1)CN([C@@H](CO)c1c2c2ccc(cc2n1C)OC)C(=O)c1cccnc1`: the cytotoxicity call in test [1] and in test [2] was “inactive” throughout. In addition, in test [3], the growth inhibition call is “inactive”.

Take `C[C@@H]1CCCCO[C@@H](CN(C)C(=O)Nc2ccc3c(c2)OCO3)[C@H](C)CN([C@H](C)CO)C(=O)c2cc(NS(=O)(=O)c3ccccc3)ccc2O1`: the cytotoxicity call in test [1] and in test [2] was “inactive” in each case. In addition, the growth inhibition call in test [3] is “inactive”.

With `COc1ccc(S(=O)(=O)N(C)C[C@@H]2Oc3ccc(NC(=O)CCN4CCOCC4)cc3CC(=O)N([C@@H](C)CO)C[C@H]2C)cc1`, the cytotoxicity call in test [1] and in test [2] was “inactive” throughout. Further, the growth inhibition call in test [3] was “inactive”.

Consider `C[C@H](CO)N1C[C@H](C)[C@H](CN(C)C(=O)Cc2ccncc2)Oc2cc(C#CC3(O)CCCC3)ccc2S1(=O)=O`, for which the cytotoxicity call in test [1] and in test [2] was “inactive” throughout. The growth inhibition call in test [3] is “inactive”.

Take `CSC[C@H](N)C(=O)O`: the cytotoxicity call in test [1] and in test [2] was “inactive” each time. In test [3], the growth inhibition call was “inactive”.

Turning to `C[C@H]1CN([C@@H](C)CO)S(=O)(=O)c2ccc(Br)cc2O[C@H]1CN(C)C(=O)Cc1ccccc1`, the cytotoxicity call in test [1] was “inactive”. Also, the cytotoxicity call in test [2] is “active”. For the same compound, in test [3], the growth inhibition call was “inactive”.

On to `CN1C(=O)c2cc(NS(C)(=O)=O)ccc2OC[C@H]2O[C@@H](CC(=O)N3CCOCC3)CC[C@@H]21`, for which the cytotoxicity call in test [1] and in test [2] was “inactive” in each case. Also, the growth inhibition call in test [3] is “inactive”.

As for `COc1ccc(NC(=O)Nc2cccc3c2O[C@@H](CN(C)Cc2ccc(Cl)c(Cl)c2)[C@@H](C)CN([C@@H](C)CO)C3=O)cc1`, the cytotoxicity call in test [1] and in test [2] was “inactive” throughout. In addition, the growth inhibition call in test [3] is “inactive”.

In the case of `C[C@H](CO)N1C[C@H](C)[C@@H](CN(C)Cc2ccncc2)Oc2ccc(NS(=O)(=O)c3ccccc3)cc2C1=O`, the cytotoxicity call in test [1] and in test [2] was “inactive” throughout. The growth inhibition call in test [3] was “inactive”.

For `C[C@@H]1CN([C@H](C)CO)C(=O)c2cc(NC(=O)Cc3ccccc3)ccc2O[C@@H](C)CCCCO[C@@H]1CN(C)Cc1ccncc1`, the cytotoxicity call in test [1] and in test [2] was “inactive” each time. For the same compound, the growth inhibition call in test [3] was “inactive”.

On to `C[C@@H]1CN([C@@H](C)CO)C(=O)Cc2cc(NC(=O)Cc3cn(C)c4ccccc34)ccc2O[C@H]1CN(C)CC1CCCCC1`, for which the cytotoxicity call in test [1] and in test [2] was “inactive” each time. In addition, the growth inhibition call in test [3] was “inactive”.

Turning to `COc1cccc(C#Cc2ccc3c(c2)O[C@@H](CN(C)C(=O)CN2CCOCC2)[C@H](C)CN([C@H](C)CO)S3(=O)=O)c1`, the cytotoxicity call in test [1] and in test [2] was “inactive” throughout. For the same compound, in test [3], the growth inhibition call is “inactive”.
